Results: PubChem BioAssay AID2101 (National Center for Advancing Translational Sciences (NCATS), 2009)
The campaign covered roughly 330,000 compounds. About 300 (0.091%) were called active. The inconclusive results got no clear call from the source; some entries with a clear call stand among them for comparison. Calls follow the shape of the dose curve; as a rule, active = well fitted inhibition curve with a large enough effect; inconclusive = small, poorly fitted or top-dose-only effect, or effect the other way, or another doubt; inactive = no such curve, though single readings can be large or run the other way. Potencies of inconclusive entries are left out as doubtful fits.

target: Lysosomal acid glucosylceramidase (Homo sapiens) (UniProt P04062); experiment: qHTS Assay for Inhibitors and Activators of N370S glucocerebrosidase as a Potential Chaperone Treatment of Gaucher Disease; conditions: N370S GC spleen homogenate, 4MU-glucoside fluorescence; activity change, negative = inhibition: at 59.4 µM (top of the series) unless noted;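 as to activity change, negative = inhibition: 0% = full enzyme activity and -100% = no enzyme basal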
Potency is read from the fitted curve at half-maximal effect.

SMILES	Potency	activity change, negative = inhibition
Cc1cnc(CNc2nc(-c3ccccc3Cl)nc3ccccc23)cn1	inconclusive [inhibitor, partial curve]	
Cc1nccc(-c2sc(-c3cccs3)nc2C)n1	inconclusive [activator, single point]	
COC(=O)c1cccc(NC(=S)Nc2ccccc2Cl)c1	inconclusive [inhibitor, single point]	
CCOc1ccc(S(=O)(=O)N2CCN(CC)CC2)cc1NC(=O)c1ccccc1F	inconclusive [inhibitor, partial curve]	
Oc1ccc(Nc2nc(-c3ccccc3)nc3ccccc23)cc1	inconclusive [inhibitor, partial curve]	
Cc1ccc(SC/C(O)=C(\C#N)c2nc3ccccc3n2C)cc1		inactive: 6.34%
COC(=O)C12CC3(CCC4C5C(C(OCc6ccccc6)C41)C52)OCCO3 (centres undefined)	inconclusive [activator, single point]	
Cc1nn(C)cc1C(=O)NNC(=S)Nc1ccccc1		inactive: -21.6%
CC[C@H](C)[C@H](NC(=O)CNC(=O)[C@H](CCCNC(=N)N)NC(=O)[C@H](CO)NC(=O)[C@H](C)NC(=O)[C@H](Cc1ccc(O)cc1)NC(=O)[C@H](Cc1c[nH]c2ccccc12)NC(=O)[C@H](C)NC(=O)[C@@H]1CCCN1C(=O)[C@H](CC(N)=O)NC(=O)[C@@H](NC(=O)[C@H](CC(=O)O)NC(=O)[C@@H]1CCCN1C(=O)[C@@H](N)[C@@H](C)O)[C@@H](C)CC)C(=O)N[C@@H](CCCNC(=N)N)C(=O)N1CCC[C@H]1C(=O)N[C@H](C(=O)NCC(=O)N[C@@H](CCCNC(=N)N)C(=O)N[C@@H](Cc1ccccc1)C(N)=O)C(C)C		inactive: -0.691%
Cc1ccc(C(=O)CC2(O)C(=O)N(CN3CCOCC3)c3ccccc32)cc1 (centres undefined)		inconclusive: 41.8% [activator]
CN(C)C(=O)c1ccc(NC(=O)c2cncc(Br)c2)cc1		inactive: 3.97%
CCc1c(C)nc2cc(-c3ccc(OC)cc3)[nH]n2c1=O		inactive: -5.61%
N#C/C(=C1/CCCCCN1)c1nc2ccccc2s1	inconclusive [activator, single point]	
Cc1cc(O)c(C(C)C)cc1C1(c2cc(C(C)C)c(O)cc2C)OC(=O)c2ccccc21	inconclusive [inhibitor, partial curve]	
COc1ccc2c(C)c(C(=O)N3CC[C@@H](N4CCC(O)CC4)[C@H](O)C3)oc2c1		inactive: -1.28%
COc1ccc(CN(CCC(c2ccccc2)C2CCOC(C)(C)C2)C(C)=O)cc1 (centres undefined)	inconclusive [activator, partial curve]	
O=C(NC(=S)NNC(=O)c1cccs1)c1ccco1		inactive: 1.64%
Cc1ccc(-c2ccc(=O)n(CC(=O)NCc3ccc(F)cc3)n2)cc1	inconclusive [activator, partial curve, poor fit]	
Cc1c(Cl)c(=O)oc2cc(OC(C)C)ccc12	inconclusive [activator, partial curve, poor fit]	
CCOC(=O)C1=C(N)Oc2cc(C)n(C)c(=O)c2C1c1ccncc1 (centres undefined)	inconclusive [inhibitor, single point]	

SMILES	Potency	activity change, negative = inhibition
NS(=O)(=O)c1ccc(CCNCc2ccccc2OCc2ccc(Cl)cc2)cc1	inconclusive [inhibitor, single point]	
COc1cc(C2Nc3cccc4cccc(c34)N2)cc(OC)c1OC(C)=O		inactive: 3.04%
O=C(/C=C(\O)c1ccccc1)C(=O)NNC(=O)c1ccccc1		inactive: -6.76%
COc1ccc2[nH]c(=O)c(CN(C(C)=O)c3cccc(C)c3)cc2c1		inactive: -16.1%
O=C(CSc1ccccc1)Nc1cc(Cl)ccc1Oc1ccccc1	inconclusive [activator, partial curve]	
Cc1cc(OC(C(=O)O)c2ccccc2)c2c(C)c(Cc3ccccc3)c(=O)oc2c1 (centres undefined)	inconclusive [activator, single point]	
O=c1c(O)c(-c2ccc(O)cc2)oc2ccccc12		inactive: 21%
C=C(C)COc1ccc(-c2n[nH]c(C)c2-c2ccc(OC)c(OC)c2)c(O)c1	inconclusive [activator, partial curve]	
Cc1nnc(SCC(=O)N2c3ccccc3C(C)(c3ccc(Cl)cc3)CC2(C)C)s1 (centres undefined)	inconclusive [activator, partial curve]	
COC(=O)c1ccccc1NC(=O)CSc1nccn1C	inconclusive [inhibitor, full curve, poor fit]	
COC(=O)c1ccc(C(NC(=O)OCc2ccccc2)/C(=C/[C@@H](C)C(=O)N(C)C)c2cccnc2)cc1 (some centres undefined)		inactive: -8.16%
COc1ccc2c(c1)O[C@@H](c1ccc3c(c1)OCO3)[C@H](OC(=O)NCCOc1ccccc1)C2=O		inactive: 7.11%
O=c1nc(-c2ccccc2Cl)c2cc(F)ccc2[nH]1	inconclusive [activator, partial curve]	
CNC(=O)c1c(NC(=O)c2cccc(C)c2)sc2c1CCC2	inconclusive [activator, single point]	
C#CCOCCOCCOCCNc1nc(N2CCN(C(=O)[C@H]([C@@H](C)CC)n3cc([C@@H](N)CC(C)C)nn3)CC2)nc(N2CCN(C(=O)[C@H](Cc3cc4ccccc4[nH]3)n3cc([C@@H](N)Cc4ccc(O)cc4)nn3)CC2)n1	inconclusive [inhibitor, single point]	
CCOc1cc(CNCc2ccccc2)ccc1OCc1ccc(Cl)cc1	inconclusive [inhibitor, partial curve]	
O=c1cc(CN2CCN(Cc3ccccc3)CC2)c2ccc(O)cc2o1	inconclusive [activator, partial curve]	
COCc1cc(C)nc2oc(C(=O)c3ccccc3)c(N)c12	inconclusive [activator, partial curve]	
CCc1cccc(CC)c1NC(=O)COc1ccccc1C(=O)c1cc(C#N)c(=O)n(C2CCCCC2)c1	inconclusive [activator, partial curve]	
